According to US8592383B2, “Cycloalkyl-fused tetrahydroquinolines as CRTH2 receptor modulators” (Merck Sharp & Dohme Corp., priority 2011, dated 2013):

molecular target: T1, hCRTH2 (Homo sapiens, UniProt Q9Y5Y4); experiment: not given; details: Table A; Radioligand Binding Assay A, [3H]PGD2, HEK-hCRTH2 membranes
T1 sequence (Q9Y5Y4 1-395): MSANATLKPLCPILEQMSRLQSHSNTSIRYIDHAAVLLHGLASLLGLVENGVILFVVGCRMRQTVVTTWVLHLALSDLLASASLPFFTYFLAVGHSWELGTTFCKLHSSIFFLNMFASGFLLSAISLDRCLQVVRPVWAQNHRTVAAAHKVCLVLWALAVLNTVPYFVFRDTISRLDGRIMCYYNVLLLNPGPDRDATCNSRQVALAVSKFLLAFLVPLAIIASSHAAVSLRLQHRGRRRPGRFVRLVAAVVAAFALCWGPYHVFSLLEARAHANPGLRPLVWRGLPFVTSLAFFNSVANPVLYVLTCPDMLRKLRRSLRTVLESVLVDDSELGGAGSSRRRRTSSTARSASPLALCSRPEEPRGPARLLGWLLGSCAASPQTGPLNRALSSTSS

| Ki [µM] | SMILES |
| --- | --- |
| 0.001 to 0.005 | O=C(O)CCC(=O)N(C1CC1)C1c2ccc(Cl)cc2N(C(=O)C2CC2c2ccccc2)C2CCCC21 (single isomer, unassigned) [17CY, 4-[[cis,cis-6-chloro-2,3,3a,4,9,9a-hexahydro-4-[(trans-2-phenylcyclopropyl)carbonyl]-1H-cyclopenta[b]quinolin-9-yl]cyclopropylamino]-4-oxobutanoic acid] |

molecular target: T1, hCRTH2; experiment: biochemical; details: Ki (nM), Table A; Radioligand Binding Assay A, [3H]PGD2, HEK-hCRTH2 membranes

| Ki [nM] | SMILES |
| --- | --- |
| 201 to 7500 | O=C(O)C1CN(C(=O)N(C2CC2)[C@H]2c3cc(F)ccc3N(C(=O)OCc3ccccc3)[C@H]3CCC[C@H]32)C1 [compound 34, 4-(phenylmethyl)(3aS,9R,9aR)-[[(3-carboxy-1-azetidinyl)carbonyl]cyclopropylamino]-7-fluoro-1,2,3,3a,9,9a-hexahydro-4H-cyclopenta[b]quinoline-4-carboxylate] |
| 5.1 to 20 | O=C(O)[C@H]1CCN1C(=O)N(C1CC1)[C@H]1c2cc(F)ccc2N(C(=O)OCc2ccccc2)[C@H]2CCC[C@H]21 [compound 133, 4-(phenylmethyl) (3aS,9R,9aR)-[[[2(R)-carboxy-1-azetidinyl]carbonyl]cyclopropylamino]-7-fluoro-1,2,3,3a,9,9a-hexahydro-4H-cyclopenta[b]quinoline-4-carboxylale] |
| 5.1 to 20 | C[C@@H](OC(=O)N1c2cc(F)ccc2C(N(C(=O)CCC(=O)O)C2CC2)C2CCCC21)c1ccc(F)cc1 (stereo partly drawn) [compound 147, 4-[1(R)-(4-fluorophenyl)ethyl] cis, cis-[(3-carboxy-1-oxopropyl)cyclopropylamino]-6-fluoro-1,2,3,3a,9,9a-hexahydro-4H-cyclopenta[b]quinoline-4-carboxylate] |
| 5.1 to 20 | COc1cc(OC(F)(F)F)ccc1C(=O)N1c2ccc(F)cc2[C@H](N(C(=O)CCC(=O)O)C2CC2)[C@@H]2CCC[C@@H]21 [compound 172] |

More lines, now with the values behind:

| SMILES | Ki [nM] |
| --- | --- |
| O=C(O)[C@@H]1CCN1C(=O)N(C1CC1)C1c2ccccc2N(C(=O)OCc2ccccc2)C2CCCC21 (stereo partly drawn) [compound 33, 4-(Phenylmethyl)cis,cis-[[(2(S)-carboxy-1-azetidinyl)carbonyl]cyclopropylamino]-1,2,3,3a,9,9a-hexahydro-4H-cyclopenta[b]quinoline-4-carboxylate] | 201 to 7500 |
| O=C(O)CCC(=O)N(C1CC1)[C@H]1c2cc(F)ccc2N(C(=O)c2ccc(OC(F)(F)F)cc2O)[C@H]2CCC[C@H]21 [compound 171] | 5.1 to 20 |
| O=C(O)CCC(=O)N(C1CC1)[C@H]1c2cc(F)ccc2N(C(=O)c2ccc(OC(F)(F)F)c(O)c2)[C@H]2CCC[C@H]21 [compound 173] | 5.1 to 20 |
| O=C(CCC(=O)N(C1CC1)[C@H]1c2cc(F)ccc2N(C(=O)c2ccc(OC(F)(F)F)cc2)[C@H]2CCC[C@H]21)OC1OC(C(=O)O)C(O)C(O)C1O (stereo partly drawn) [compound 174] | 201 to 7500 |
